This passage reports cAMP reporter score and surface expression score results from the GPR68 mutational scans of Howard et al. (2025).

Scores whose standard error is large were omitted. Not listed are two conditions whose scores span a narrow range. In variant names, del marks residues removed and ins residues inserted between the two positions. For some of these results: How much ogerin was present is not stated here.

To fix the notation:
B1: GPR68, Q15743 (parent)
chain: MGNITADNSSMSCTIDHTIHQTLAPVVYVTVLVVGFPANCLSLYFGYLQIKARNELGVYLCNLTVADLFYICSLPFWLQYVLQHDNWSHGDLSCQVCGILLYENIYISVGFLCCISVDRYLAVAHPFRFHQFRTLKAAVGVSVVIWAKELLTSIYFLMHEEVIEDENQHRVCFEHYPIQAWQRAINYYRFLVGFLFPICLLLASYQGILRAVRRSHGTQKSRKDQIQRLVLSTVVIFLACFLPYHVLLLVRSVWEASCDFAKGVFNAYHFSLLLTSFNCVADPVLYCFVSETTHRDLARLRGACLAFLTCSRTGRAREAYPLGAPEASGKSGAQGEEPELLTKLHPAFQTPNSPGSGGFPTGRLA

In data set [1] the parent is B1. Nature of the data set: cAMP reporter score (Enrich2 score, wild type = 0); higher = more signal; HEK293T, FACS bins.
The variants in data set [2] derive from B1. The data set can be described thus: surface expression score (Enrich2 score, wild type = 0); higher = more signal; HEK293T, FACS bins.

On to N39del, for which the cAMP reporter score in data set [1] (pH 5.5) was -1.28; in data set [1] (pH 6), -0.38; in data set [1] (pH 6, modulator: ogerin) it was -1.65; in data set [1] (pH 6.5, modulator: ogerin) it was -0.861. In addition, the surface expression score in data set [2] was -2.3.

As to P37_N39del, the cAMP reporter score in data set [1] (pH 5.5) was -1.41; in data set [1] (pH 6), -1.04; in data set [1] (pH 6, modulator: ogerin) it was -1.3; in data set [1] (pH 6.5, modulator: ogerin), -1.03. Further, the surface expression score in data set [2] is -2.58.

In the case of V34_F36del, the cAMP reporter score in data set [1] (pH 5.5) is -0.97; in data set [1] (pH 6) it was -0.677; in data set [1] (pH 6, modulator: ogerin), -1.44; in data set [1] (pH 6.5, modulator: ogerin), -0.484. Also, in data set [2], the surface expression score is -2.64.

As for A38_C40del, the cAMP reporter score in data set [1] (pH 5.5) was -1.29; in data set [1] (pH 6), -0.295; in data set [1] (pH 6, modulator: ogerin), -0.757; in data set [1] (pH 6.5, modulator: ogerin) it was -0.467. Further, the surface expression score in data set [2] was -2.15.

Take R53_E55del: the cAMP reporter score is -0.283 in data set [1] (pH 5.5); 0.561 in data set [1] (pH 6); -0.869 in data set [1] (pH 6, modulator: ogerin); 0.594 in data set [1] (pH 6.5, modulator: ogerin). Further, the surface expression score in data set [2] was -2.48.

On to G46_L48del, for which the cAMP reporter score is -1.08 in data set [1] (pH 5.5); 0.946 in data set [1] (pH 6); 0.32 in data set [1] (pH 6.5, modulator: ogerin). Besides, the surface expression score in data set [2] is -2.69.

Take F45_G46insGS: the cAMP reporter score in data set [1] (pH 5.5) was -1.55; in data set [1] (pH 6), -0.632; in data set [1] (pH 6, modulator: ogerin), -1.41; in data set [1] (pH 6.5, modulator: ogerin), -0.341. The surface expression score in data set [2] is -3.

V33del: the cAMP reporter score in data set [1] (pH 5.5) is -1.36; in data set [1] (pH 6), -1.13; in data set [1] (pH 6, modulator: ogerin), -1.75; in data set [1] (pH 6.5, modulator: ogerin) it was -1.57. Also, in data set [2], the surface expression score is -1.7.

On to V34_G35insGSG, for which the cAMP reporter score in data set [1] (pH 5.5) was -0.919; in data set [1] (pH 6), -1.64; in data set [1] (pH 6, modulator: ogerin), -1.8; in data set [1] (pH 6.5, modulator: ogerin) it was -1.18. Moreover, in data set [2], the surface expression score was -2.48.

Consider Y47del, for which the cAMP reporter score in data set [1] (pH 5.5) is -1.9; in data set [1] (pH 6) it was -1.83; in data set [1] (pH 6, modulator: ogerin) it was -1.16; in data set [1] (pH 6.5, modulator: ogerin), -1.95. In data set [2], the surface expression score was -2.21.

Turning to E55_L56insGSG, the cAMP reporter score in data set [1] (pH 5.5) is -1.64; in data set [1] (pH 6), -1.37; in data set [1] (pH 6, modulator: ogerin), -1.32; in data set [1] (pH 6.5, modulator: ogerin) it was -1.01. In addition, the surface expression score in data set [2] was 0.695.

With F36_A38del, the cAMP reporter score in data set [1] (pH 5.5) is -1.45; in data set [1] (pH 6), -0.419; in data set [1] (pH 6, modulator: ogerin) it was -1.29; in data set [1] (pH 6.5, modulator: ogerin), -0.989. The surface expression score in data set [2] is -2.26.

Take Y44_F45insG: the cAMP reporter score in data set [1] (pH 5.5) was -0.607; in data set [1] (pH 6), -0.1; in data set [1] (pH 6, modulator: ogerin), -0.461; in data set [1] (pH 6.5, modulator: ogerin), -0.074. The surface expression score in data set [2] is -2.11.

Take N54_E55insGSG: the cAMP reporter score in data set [1] (pH 5.5) was -1.45; in data set [1] (pH 6), -1.57. Moreover, the surface expression score in data set [2] was -2.49.

In the case of F45K, the cAMP reporter score worked out at 0.634 in data set [1] (pH 5.5); 0.614 in data set [1] (pH 6); 0.65 in data set [1] (pH 6, modulator: ogerin); 0.161 in data set [1] (pH 6.5, modulator: ogerin). Besides, the surface expression score in data set [2] was -0.124.

With F45L, the cAMP reporter score in data set [1] (pH 5.5) is 0.579; in data set [1] (pH 6), -0.257; in data set [1] (pH 6, modulator: ogerin), -0.18; in data set [1] (pH 6.5, modulator: ogerin), -0.769. The surface expression score in data set [2] came out at 1.6.

Regarding F45A, the cAMP reporter score in data set [1] (pH 5.5) is -0.222; in data set [1] (pH 6, modulator: ogerin) it was -0.299; in data set [1] (pH 6.5, modulator: ogerin), 0.339. Besides, the surface expression score in data set [2] is -0.436.

With F45S, the cAMP reporter score in data set [1] (pH 5.5) was -1.12; in data set [1] (pH 6), -0.716; in data set [1] (pH 6, modulator: ogerin), -1.37; in data set [1] (pH 6.5, modulator: ogerin) it was -1.48. In addition, the surface expression score in data set [2] is -2.

Turning to F45R, the cAMP reporter score in data set [1] (pH 5.5) was 0.117; in data set [1] (pH 6), -0.442; in data set [1] (pH 6, modulator: ogerin), 0.392; in data set [1] (pH 6.5, modulator: ogerin), -0.366. Also, the surface expression score in data set [2] was -0.441.

Consider F45T, for which the cAMP reporter score in data set [1] (pH 5.5) is -0.466; in data set [1] (pH 6) it was -1.5; in data set [1] (pH 6, modulator: ogerin), -0.698; in data set [1] (pH 6.5, modulator: ogerin), -1.49. Moreover, in data set [2], the surface expression score was -3.2.

With F45Y, the cAMP reporter score worked out at 1.14 in data set [1] (pH 5.5); 0.476 in data set [1] (pH 6); 1.17 in data set [1] (pH 6, modulator: ogerin); 0.39 in data set [1] (pH 6.5, modulator: ogerin). Moreover, in data set [2], the surface expression score stood at 1.22.

With F45E, the cAMP reporter score in data set [1] (pH 5.5) was -0.578; in data set [1] (pH 6) it was -0.968; in data set [1] (pH 6, modulator: ogerin), -0.893; in data set [1] (pH 6.5, modulator: ogerin), -0.502. For the same variant, in data set [2], the surface expression score is -2.37.

Turning to F45D, the cAMP reporter score in data set [1] (pH 5.5) was -1.6; in data set [1] (pH 6), -0.243; in data set [1] (pH 6, modulator: ogerin) it was -1.58; in data set [1] (pH 6.5, modulator: ogerin), -1.03. Also, in data set [2], the surface expression score was -2.59.

With F45C, the cAMP reporter score was -0.064 in data set [1] (pH 5.5); 0.359 in data set [1] (pH 6); -0.038 in data set [1] (pH 6, modulator: ogerin); 0.341 in data set [1] (pH 6.5, modulator: ogerin). In data set [2], the surface expression score is -1.37.

F45M: the cAMP reporter score in data set [1] (pH 5.5) is 0.75; in data set [1] (pH 6), -0.57; in data set [1] (pH 6, modulator: ogerin), 0.462; in data set [1] (pH 6.5, modulator: ogerin), -0.34. Also, the surface expression score in data set [2] worked out at 1.27.

For F45I, the cAMP reporter score in data set [1] (pH 5.5) is -0.339; in data set [1] (pH 6), -0.398; in data set [1] (pH 6, modulator: ogerin), -0.204; in data set [1] (pH 6.5, modulator: ogerin) it was -0.58. The surface expression score in data set [2] amounted to 0.199.

For the variant F45N, the cAMP reporter score in data set [1] (pH 5.5) was -0.33; in data set [1] (pH 6), -1.32. The surface expression score in data set [2] was -0.71.

Regarding F45H, the cAMP reporter score in data set [1] (pH 5.5) was 0.239; in data set [1] (pH 6), -0.014; in data set [1] (pH 6, modulator: ogerin), 0.401; in data set [1] (pH 6.5, modulator: ogerin), -0.272. Also, the surface expression score in data set [2] was -0.617.

In the case of F45G, the cAMP reporter score in data set [1] (pH 5.5) is -2.15; in data set [1] (pH 6, modulator: ogerin), -1.05; in data set [1] (pH 6.5, modulator: ogerin) it was -1.58. Besides, the surface expression score in data set [2] was -1.37.

On to F45V, for which the cAMP reporter score in data set [1] (pH 5.5) was -1.05; in data set [1] (pH 6), -0.199; in data set [1] (pH 6, modulator: ogerin) it was -1.07; in data set [1] (pH 6.5, modulator: ogerin) it was -0.48. Also, the surface expression score in data set [2] was -1.55.

In the case of F45W, the cAMP reporter score is -0.623 in data set [1] (pH 5.5); -0.326 in data set [1] (pH 6); -0.648 in data set [1] (pH 6, modulator: ogerin); -0.804 in data set [1] (pH 6.5, modulator: ogerin). Besides, the surface expression score in data set [2] was 0.92.
